Source: the supplement of paper PMC11417369
This is one part of the list.

system: PfSIP2 AP2 domain 1 (GST-tagged); test: gcPBM binding intensity (ln(normalized median fluorescence intensity)); higher = stronger DNA binding
Summary of the method: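 Each value is the highest Masliner-normalised natural-log median intensity across replicate spots of either orientation of a probe. The probes were primer-extended double-stranded 36-bp intergenic genomic sequences on an Agilent 4 × 180k array, alongside negative controls, exposed for 1 h to GST-tagged P. falciparum DNA-binding domains expressed in E. coli. Bound protein was picked up with Alexa488 anti-GST antibody and scanned at 488 nm.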

Sequence | gcPBM binding intensity (ln)
ATTAAAAAAATATAAACACACAAAAAAAAAATATAC [CACACA_site1100] | 7.34
TAATGAAAAAATAAAAGAATAAATAAATAAATAAAT [TGCATGCA_negctrl_site130] | 7.13
AATAAAAAAAGTTTTTTTTTTTTTTAAACAATAGAC [CACACA_negctrl_site1061] | 7.37
AATAACCACCAACACACACACATATATATATATATA [CACACA_site3540] | 9.48
ATAATAATAATAAAAAGTACATTTAATTATATAGAA [XGTACX_site7742] | 6.95
AAAAATTTAATGAAATGTACATATATGTTATTAATA [XGTACX_site6091] | 7.17
TATATGTTTTAAAAGTGTACTTTAGTTTCAATTTTT [XGTACX_site4269] | 6.79
AAGAATGTTAATAGTACACACAATTATTATATAAAT [CACACA_site3739] | 7.05
TAAATGCACATATACACACACCCAATTTTAAGTTTT [CACACA_site7428] | 7.15
ATACATATTACATGTTGTACTCCAACAAAAATGCCC [XGTACX_site3201] | 7.58
TTAATTTCATTTTCTACACACCTATCCTTTTTTTTT [CACACA_site772] | 6.71
ACATCAAGAATTATTAAGAATACGGATAGATAAAAT [GTGCAC_negctrl_site261] | 6.99
TTTCAAAATGTGTAAAATAAAAATAATATCATTACA [TGCATGCA_negctrl_site521] | 7
ATGTGATATAAGTACACACACATATGTATATAGAAT [CACACA_site1823] | 7.17
AATGTATATATGTAATGTACATATGTAATGTATATA [XGTACX_site6509] | 7.03
AATATAGATATAACCACACACATACATCTAATTCTA [CACACA_site1760] | 6.97
GAAAAGAACAAGAGCATGCACTTAATAAGAATAATA | 7.25
TGTTTCTTATTTTTTTCACACACTAAACATTTCAAA [CACACA_site2218] | 7.56
AAAAAAAGATTATACACACACATATATAAACCTACA [CACACA_site710] | 6.97
TCTATACCTATTCTTACACACATATGTATATATATA [CACACA_site563] | 8.1
TTTTTTTTTTTTGAAACATGCATTGTTTTATTCTTA [TGCATGCA_site15] | 6.74
ATATATATATAATCAAGTACACAGTAATAAAAAGAA [XGTACX_site1070] | 8.59
AATAATAACTGTAGGTGTACGTAAAAAAAAAATTAT [XGTACX_site3133] | 7.32
ATTGTGTTCATCAGCACACACAACATCATGCAATAA [CACACA_site6960] | 7.15
